# In PubChem BioAssay AID488969 (Vanderbilt High Throughput Screening Facility, 2010):
# In all, about 110,000 compounds were measured (“z-score”: median about -0.1, highest 2% from about 2 on). The list shows a part of the results. Active and inactive are the calls of the source.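 Rule for the calls: active = z-score in the third read window above 3 or below -3; inactive = the rest.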
# Molecular target: Metabotropic glutamate receptor 8 (Rattus norvegicus) (UniProt P70579)
# Assay: mGluR8 Gi/Go-coupled signaling modulation – cell-based, rat, thallium flux, HTS, primary screen (AID 488969)
# Details: HEK293 rat mGluR8, GIRK (G protein-gated inwardly rectifying potassium channel) thallium flux, FluoZin2; at 10 µM; stronger effect = higher value; submaximal glutamate (EC20) added with thallium
# Chain of UniProt P70579 (P70579 whole entry, looked up): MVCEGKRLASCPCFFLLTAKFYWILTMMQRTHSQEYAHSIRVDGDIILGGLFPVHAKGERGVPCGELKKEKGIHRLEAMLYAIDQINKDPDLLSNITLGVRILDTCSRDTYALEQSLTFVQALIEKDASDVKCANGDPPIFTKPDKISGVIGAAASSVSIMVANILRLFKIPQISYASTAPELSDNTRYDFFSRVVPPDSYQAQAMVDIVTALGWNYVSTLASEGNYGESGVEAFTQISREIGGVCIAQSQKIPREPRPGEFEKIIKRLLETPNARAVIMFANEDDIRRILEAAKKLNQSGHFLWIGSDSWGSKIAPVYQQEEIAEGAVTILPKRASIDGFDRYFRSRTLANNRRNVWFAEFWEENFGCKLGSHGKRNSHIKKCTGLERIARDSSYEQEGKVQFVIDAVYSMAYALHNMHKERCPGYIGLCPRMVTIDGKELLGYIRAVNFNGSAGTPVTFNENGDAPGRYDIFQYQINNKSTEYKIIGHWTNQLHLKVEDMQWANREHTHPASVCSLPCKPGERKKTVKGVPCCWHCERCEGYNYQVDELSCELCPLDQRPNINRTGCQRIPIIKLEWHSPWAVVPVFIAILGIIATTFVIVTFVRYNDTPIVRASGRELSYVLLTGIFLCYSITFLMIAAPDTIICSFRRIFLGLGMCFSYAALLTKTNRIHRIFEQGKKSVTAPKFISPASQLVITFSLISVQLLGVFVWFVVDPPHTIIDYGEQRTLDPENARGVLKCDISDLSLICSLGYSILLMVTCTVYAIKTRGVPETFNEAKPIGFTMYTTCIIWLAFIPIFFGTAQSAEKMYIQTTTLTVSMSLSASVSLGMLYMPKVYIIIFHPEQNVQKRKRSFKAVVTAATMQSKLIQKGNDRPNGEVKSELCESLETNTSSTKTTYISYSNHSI
row,SMILES,z-score
1,O=C(COc1ccc(F)cc1Br)NCc1ccccn1,-0.474
2,O=c1c2cc(F)ccc2[nH]c(=S)n1CCCN1CCOCC1,active: 3.11
3,CCOC(=O)C1=C(O)C(=O)N(c2ccc(S(N)(=O)=O)cc2)C1c1ccc(OC)cc1 (stereo not drawn),-0.258
4,Cc1cccc(NC(=O)CSc2ccc(-c3ccc4c(c3)OCO4)nn2)c1C,-0.129
5,Cc1cccc(NC(=O)c2nc[nH]c2C(=O)Nc2ccccc2[N+](=O)[O-])c1,-0.274
6,CCOc1ccc(N2C(=O)/C(=C/c3cc(OC)c(OC)c(OC)c3)N(CC(=O)OC)C2=S)cc1,active: 14.1
7,Cc1cc(CN(C)C)c(O)c(C2(C)CCCCC2)c1,0.411
8,CCOC(=O)c1c2ccc(OCC(=O)N/N=C/c3ccc(Cl)cc3)cc2n2ccccc12,-0.577
9,O=C(NNS(=O)(=O)c1ccccc1)C(O)(c1ccccc1)c1ccccc1,-0.446
10,Cc1ccc(NC(=O)C2CCN(S(C)(=O)=O)CC2)cc1,-0.133
11,Cc1ccc(C(CC(=O)O)C2CCOC(C)(C)C2)cc1 (stereo not drawn),0.72
12,O=C(Nc1ccccc1)Nc1nnc(SCc2ccc(Cl)cc2)s1,-0.2
13,CCOC(=O)C(NCCc1ccccc1F)(NC(=O)CC)C(F)(F)F (stereo not drawn),-0.0418
14,Cc1ccc(S(=O)(=O)N2CCOCC2)cc1C(=O)Nc1ccccn1,-0.302
15,O=C(Nc1ccc(F)cc1)C(c1ccccc1)N1CCN(S(=O)(=O)c2ccccc2)CC1 (stereo not drawn),-0.768
16,COc1cccc(C2=CC(c3cccs3)n3nnnc3N2)c1 (stereo not drawn),-0.738
17,CCCCC(=O)Nc1nc2ccc3nc(C)sc3c2s1,-0.125
18,CSc1nnc(-c2cnccn2)n1C,0.516
19,Cc1c(S(=O)(=O)Nc2cc(Cl)ccc2Cl)c(=O)n(C)c(=O)n1C,-0.406
20,Cc1nc(SCc2c(F)cccc2Cl)c2c(=O)n(C)c(=O)n(C)c2n1,-0.142
21,N#C/C(=C/c1cn(-c2ccccc2)nc1-c1cccc(OCc2ccc(F)cc2)c1)C(=O)NCCCn1ccnc1,-0.142
22,O=C(CC1Sc2ccccc2NC1=O)c1ccc(Br)cc1 (stereo not drawn),-0.787
23,CC(=O)/C=C1/SC(CC(=O)O)C(=O)N1c1ccccc1 (stereo not drawn),-0.0454
24,CC1CCN(CCC(=O)N2CCCc3c2c(=O)oc2ccc(O)cc32)CC1,-0.623
25,O=C(Nc1ccc2c(c1)OCO2)N1CCN(c2ncc(C(F)(F)F)cc2Cl)CC1,-0.421
26,Nc1cc(C(=O)OCC(=O)NCc2ccc(F)cc2)ccc1Cl,-0.321
27,CCN(CC)CCN1C(=O)C(=O)/C(=C(/O)c2ccc(F)cc2)C1c1ccncc1 (stereo not drawn),-0.212

row,SMILES,z-score
1,COc1ccc2oc(=O)c(C(=O)NCc3ccccn3)cc2c1,-0.00183
2,O=S1(=O)CCC(S(=O)(=O)N2CCCCCC2)C1 (stereo not drawn),-0.216
3,COc1cc(C(=O)N(Cc2ccc(F)cc2)C2CCS(=O)(=O)C2)cc(OC)c1OC (stereo not drawn),-0.194
4,O=S(=O)(c1ccc(Cl)s1)N1CCN(c2ncccn2)CC1,0.108
5,CN(C(=S)NC1CCCCC1)C1(c2ccccc2Cl)CCCCC1=O (stereo not drawn),-0.416
6,CC(=O)Nc1cnn(Cc2ccc(Br)cc2)c1,0.329
7,CCOc1ccccc1/C=N/NC(=O)CNC(=O)c1ccc(S(=O)(=O)N2CCOCC2)cc1,-0.36
8,CCCOc1ccc(OCCOCCNCc2ccccc2)cc1,-0.863
9,COc1ccc2c(c1)[nH]c1c(Cl)ncnc12,-0.17
10,CCc1ccccc1S(=O)(=O)Cc1ccc(C(=O)NCC2CCCO2)o1 (stereo not drawn),-0.152
11,CCCCNC(=O)c1cc2nc3c(c(C(F)(F)F)n2n1)CCc1ccccc1-3,-0.114
12,Cc1cc(C)c(C)c(C(=O)CSc2nnc(-c3ccc4[nH]c(C)c(C)c4c3)o2)c1C,0.13
13,CCOC(=O)C1=C(CSc2nc3ccccc3s2)NC(=O)NC1c1cccc([N+](=O)[O-])c1 (stereo not drawn),0.469
14,CC(=O)Nc1ccc(S(=O)(=O)N2CCN(CC(O)COc3ccc4ccccc4c3)CC2)cc1 (stereo not drawn),0.0161
15,CC(C)NC(=S)NC(=O)c1ccc(-c2ccccc2)cc1,0.201
16,Cc1ccnc(SCc2nc3ccccc3s2)n1,-0.138
17,CC1(C)NC(=O)N(CCCCOc2ccc3ccccc3c2Cl)C1=O,-0.0111
18,Nc1c(Br)cc2oc(-c3ccccc3)nc2c1Br,-0.3
19,COc1cc2c(cc1NC(=O)Cn1cnc3c1c(=O)n(C)c(=O)n3C)oc1ccccc12,0.238
20,O=C(NC1CCCC1)C(c1ccccc1)N(C(=O)c1ccno1)c1ccccc1 (stereo not drawn),0.315
21,COc1cc(OC)cc(C(=O)Nc2ccc3c(c2)COC3=O)c1,-0.438
22,COCCCNC(=O)CC(NS(=O)(=O)c1ccc(C)cc1)c1ccc(OC)cc1 (stereo not drawn),-0.0343
23,COCC(=O)Nc1ccc(S(=O)(=O)Nc2ncccn2)cc1,0.0612
24,CC(=O)NC(Cc1cc(C)ccc1C)C(=O)N1CCN(C(=O)Nc2ccc(C(C)=O)cc2)CC1 (stereo not drawn),0.0589
25,COc1cc2c(cc1NC(=O)c1cncc(Br)c1)oc1ccccc12,-0.346
26,Clc1ccc(C2=Nn3c(nnc3-c3cc(-c4ccccc4)n[nH]3)SC2)cc1,0.0273
